Results reported in PubChem BioAssay AID488969 (Vanderbilt High Throughput Screening Facility, 2010).
Over roughly 110,000 compounds, “z-score” has its median near -0.1; the highest 2% begin near 2. The list shows a part of the results.

target: Metabotropic glutamate receptor 8 (Rattus norvegicus) (UniProt P70579); assay: mGluR8 Gi/Go-coupled signaling modulation – cell-based, rat, thallium flux, HTS, primary screen (AID 488969); details: HEK293 rat mGluR8, GIRK (G protein-gated inwardly rectifying potassium channel) thallium flux, FluoZin2; at 10 µM; stronger effect = higher value; submaximal glutamate (EC20) added with thallium
Chain of UniProt P70579 (P70579 whole entry, looked up): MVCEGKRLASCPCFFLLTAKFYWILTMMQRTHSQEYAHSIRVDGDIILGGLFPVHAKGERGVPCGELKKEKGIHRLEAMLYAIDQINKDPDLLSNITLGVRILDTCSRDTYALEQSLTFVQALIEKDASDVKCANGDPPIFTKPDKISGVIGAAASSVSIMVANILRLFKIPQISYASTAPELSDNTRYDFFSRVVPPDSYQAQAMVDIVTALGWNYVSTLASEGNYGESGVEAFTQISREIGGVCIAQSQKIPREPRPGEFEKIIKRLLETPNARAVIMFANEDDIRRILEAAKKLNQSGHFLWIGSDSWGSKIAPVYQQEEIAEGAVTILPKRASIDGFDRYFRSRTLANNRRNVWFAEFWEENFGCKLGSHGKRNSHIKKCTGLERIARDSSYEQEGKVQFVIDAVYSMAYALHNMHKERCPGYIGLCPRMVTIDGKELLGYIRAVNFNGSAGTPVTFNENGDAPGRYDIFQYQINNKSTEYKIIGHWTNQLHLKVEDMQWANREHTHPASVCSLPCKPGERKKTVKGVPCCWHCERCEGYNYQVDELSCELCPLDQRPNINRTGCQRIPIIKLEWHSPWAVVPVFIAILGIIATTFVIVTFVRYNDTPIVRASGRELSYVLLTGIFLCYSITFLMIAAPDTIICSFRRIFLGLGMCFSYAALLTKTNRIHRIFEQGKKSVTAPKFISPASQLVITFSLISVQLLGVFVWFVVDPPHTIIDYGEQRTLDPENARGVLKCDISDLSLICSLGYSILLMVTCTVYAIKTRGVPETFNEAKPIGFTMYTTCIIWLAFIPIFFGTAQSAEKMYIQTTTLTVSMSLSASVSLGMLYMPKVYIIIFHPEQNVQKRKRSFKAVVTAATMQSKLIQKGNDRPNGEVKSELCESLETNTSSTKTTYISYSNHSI

SMILES | z-score
O=S(=O)(Nc1cc(Cl)ccn1)c1ccc(Cl)cc1 | 0.404
C=CCc1c(C)[nH]c(=S)c(C#N)c1C | 0.33
c1ccc(-c2nnc3sc(Cc4cccs4)nn23)cc1 | -2.92
O=c1[nH]c(SCc2nc3ccccc3c(=O)n2-c2ccccc2)nc2ccccc12 | -0.425
Cc1c(C(=O)Nc2ccccc2)sc2nc(-c3ccccc3)cn12 | -0.299
COCc1cc(=O)n2[nH]c(-c3ccccc3)cc2n1 | 0.574
Cc1cc(C)cc(NC(=O)CSc2nnc(-c3ccccc3C)o2)c1 | 0.162
Clc1cc(Cl)c2nc(N3CCCCC3)sc2c1 | -0.0373
CCc1ccc(Nc2ccc(C(N)=O)cc2[N+](=O)[O-])cc1 | 0.0567
CC1Cn2c(nnc2-c2cccc(Cl)c2)S1 (configuration not stated) | 0.938
CCc1cccc(CC)c1NC(=O)CCCSc1nc2ccccc2s1 | -0.0184
COc1ccc(-n2c(SCC(=O)Nc3nccs3)nc3c(c2=O)SCC3)cc1 | -0.227
COc1ccc(-c2nnc(-c3cccnc3)o2)cc1 | 0.161
CC(C(=O)N1CCN(C2c3ccccc3-c3ccccc32)CC1)N1C(=O)c2ccccc2C1=O (configuration not stated) | -0.686
Cc1cc(=O)n2c(C)n[nH]c2n1 | -0.0861
CC(C)[C@H](NC(=O)OC(C)(C)C)c1nnc(SCc2cccc(F)c2)o1 | 0.0783
Cc1cc(N2CCN(C(=O)c3ccco3)CC2)n2ncnc2n1 | -0.0355
CC(=O)C1=C(C)Nc2ncnn2C1c1cccc(OCc2ccccc2)c1 (configuration not stated) | -0.505
O=C(N/N=C/c1ccc(Cl)cc1Cl)Nc1ccccc1 | -0.276

SMILES | z-score
Cc1cc(C)c2nc(SCC(=O)N3CC(=O)Nc4ccccc43)c(C#N)cc2c1 | -0.188
Cc1ccc(/C=N/n2cnnc2)s1 | 0.0344
O=C(NCC1CCC(C(=O)O)CC1)OCc1ccccc1 (configuration not stated) | -0.155
COC(=O)c1ccc(C2C(C#N)=C(C)NC3=C2C(=O)CC(C)(C)C3)cc1 (configuration not stated) | -0.376
CCOc1ccc(N2CC(C(=O)Nc3cc(C)on3)CC2=O)cc1 (configuration not stated) | -0.198
COc1ccc(C2CC(c3ccc(Cl)cc3)n3nc(N)nc3N2)cc1 (configuration not stated) | 2.61
CC1CCN(C(=O)CSc2nc3[nH]ncc3c(=O)[nH]2)CC1 | -0.218
Cc1ccc2nc(/C=C/c3cccc(F)c3)ccc2c1 | -0.172
O=C(COc1cccc(Cl)c1Cl)Nc1ccc2c(c1)CCC2 | -0.118
Cc1cn2c(nc(=O)c3cccnc32)s1 | -0.18
O=[N+]([O-])c1cc(-c2cnc3ccccc3n2)ccc1Oc1ccc(F)cc1 | 1.02
O=C(CN1C(=O)C2CCc3[nH]c4ccccc4c3C2C1=O)N1CCCC1 (configuration not stated) | -0.198
O=C(CN1CCCC(O)C1)N1c2ccccc2Sc2ccc(C(F)(F)F)cc21 (configuration not stated) | -0.253
CCOC(=O)c1cnc2ccc(C(=O)OC)cc2c1NCCN1CCOCC1 | 0.687
Nc1nc(-c2ccc(Br)cc2)cc(C(F)(F)F)n1 | 0.218
O=C(COC(=O)c1ccc2[nH]c3c(c2c1)CCCC3)Nc1ccc(Cl)cc1Cl | 0.0235
COC(=O)CSc1nc(-c2ccccc2)c2c(c1C#N)CCCC2 | -0.0951
CN(Cc1ccccc1)S(=O)(=O)c1cccc2cccnc12 | -0.284
Cc1noc(C(=O)NCc2ccccc2)c1Cl | -0.324

SMILES | z-score
CCOc1ccc2c(c1)C(=NNC(=O)c1ccncc1)c1cc(OCC)ccc1-2 | 0.597
CCCCN(CC)C(=O)c1cccc(Cl)c1 | 0.112
O=C(NCC(c1ccco1)N1CCN(c2ccccc2F)CC1)OCc1ccccc1 (configuration not stated) | -0.578
Cc1ccnc(NC(=O)c2ccccc2NC(=O)C(C)(C)C)c1 | -0.256
Cc1nc2c3ccccc3[nH]c(=O)n2n1 | -0.192
CCOc1ccc(C(O)Cc2nc3ccccc3n2C)cc1 (configuration not stated) | -0.214
CN(NC(=O)NN)c1ncc(C(F)(F)F)cc1Cl | 0.252
O=C(CSc1ncc(-c2ccccc2)[nH]1)Nc1ccccc1 | -0.481
COc1ccc(-c2cc(C(F)F)n3ncc(C(=O)n4ccnc4C)c3n2)cc1 | -0.329
O=C(NCCC1=CCCCC1)C1CCCN(S(=O)(=O)c2cccnc2)C1 (configuration not stated) | 0.742
C/C(=N\n1c(C)cc(C)c(C#N)c1=O)c1cccs1 | -0.0993
CC(C)(C)c1ccc(C(=O)CCCSC2=C(C#N)C(c3ccco3)C3=C(CCCC3=O)N2)cc1 (configuration not stated) | 0.202
Clc1ccc(OCc2nnc(-c3ccccc3Br)o2)cc1 | -0.412
O=C(CSc1nc2ccccc2[nH]1)Nc1ccccc1F | 0.0383
COc1cccc(Nc2ncccc2C(=O)O)c1 | 0.133
N#CC1=C2SCN(Cc3ccccc3)CN2C(=O)CC1c1ccc2c(c1)OCO2 (configuration not stated) | 0.576
CCCn1nnnc1NCc1ccccc1OCc1ccc(F)cc1 | -0.956
Cc1ccc(O)c(C(=O)/C=C/c2ccc3c(c2)OCCCO3)c1 | 0.653
Cc1ccc(CCNC(=O)C2CCCN(S(=O)(=O)c3c(C)nn(C)c3C)C2)cc1 (configuration not stated) | 0.839
